# Source: the supplement of paper PMC8728848
# The list shows a part of the results.
# Legend:
# Experiment in all cases: glycan array binding signal (z-score within array); higher = stronger binding
# Conditions in all cases: glycan notation: IUPAC condensed, linker removed
# [1] = target: GlcNAc(b1-4)GlcNAc(b1-4)GlcNAc(b1-4)GlcNAc(b1-4)GlcNAc(b1-4)GlcNAc
# Outline: (§1)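 The Consortium for Functional Glycomics database supplied 3228 glycan arrays, of which those lacking an available protein sequence were dropped. The binding signal, a within-array Z-score, was averaged across arrays of the same protein sequence and across linkers. Negative scores can be read as non-binding.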
# [2] = target: GlcNAc(b1-4)[GlcNAc(b1-6)]GalNAc
# Outline: as §1
# [3] = target: GlcNAc(b1-6)Gal(b1-4)GlcNAc
# Outline: as §1
# [4] = target: GlcNAc(b1-6)GalNAc
# Outline: as §1
# [5] = target: GlcNAc3Prop(b1-4)GlcNAc
# Outline: as §1
# [6] = target: Kdn(a2-3)Gal(b1-3)GlcNAc
# Outline: as §1
# [7] = target: Kdn(a2-3)Gal(b1-4)GlcNAc
# Outline: as §1
# [8] = target: Man(a1-2)Man(a1-2)Man(a1-3)Man
# Outline: as §1
# [9] = target: Man(a1-2)Man(a1-2)Man(a1-6)[Man(a1-3)]Man
# Outline: as §1
# [10] = target: Man(a1-2)Man(a1-3)Man
# Outline: as §1
# [11] = target: Man(a1-2)Man(a1-3)[Man(a1-2)Man(a1-6)]Man
# Outline: as §1
# [12] = target: Man(a1-2)Man(a1-3)[Man(a1-2)Man(a1-6)]Man(a1-6)[Man(a1-2)Man(a1-2)Man(a1-3)]Man
# Outline: as §1
# [13] = target: Man(a1-2)Man(a1-3)[Man(a1-2)Man(a1-6)]Man(a1-6)[Man(a1-2)Man(a1-2)Man(a1-3)]Man(b1-4)GlcNAc(b1-4)GlcNAc
# Outline: as §1
# [14] = target: Man(a1-2)Man(a1-3)[Man(a1-6)]Man(a1-6)[Man(a1-2)Man(a1-3)]Man(b1-4)GlcNAc(b1-4)GlcNAc
# Outline: as §1
# [15] = target: Man(a1-2)Man(a1-6)[Man(a1-3)]Man(a1-6)[Man(a1-2)Man(a1-2)Man(a1-3)]Man
# Outline: as §1
# [16] = target: Man(a1-2)Man(a1-6)[Man(a1-3)]Man(a1-6)[Man(a1-2)Man(a1-2)Man(a1-3)]Man(b1-4)GlcNAc(b1-4)GlcNAc
# Outline: as §1
# [17] = target: Man(a1-3)[Man(a1-6)]Man
# Outline: as §1
# [18] = target: Man(a1-3)[Man(a1-6)]Man(a1-6)[Man(a1-2)Man(a1-3)]Man(b1-4)GlcNAc(b1-4)GlcNAc
# Outline: as §1
# [19] = target: Man(a1-3)[Man(a1-6)]Man(a1-6)[Man(a1-3)]Man
# Outline: as §1
# [20] = target: Man(a1-3)[Man(a1-6)]Man(a1-6)[Man(a1-3)]Man(b1-4)GlcNAc(b1-4)GlcNAc
# Outline: as §1
# [21] = target: Man(a1-3)[Man(a1-6)]Man(b1-4)GlcNAc(b1-4)GlcNAc
# Outline: as §1
# [22] = target: Man(a1-6)Man
# Outline: as §1
# [23] = target: Man(b1-4)GlcNAc
# Outline: as §1
# [24] = target: Neu5Ac(a2-3)Gal
# Outline: as §1
# [25] = target: Neu5Ac(a2-3)Gal(b1-3)GalNAc
# Outline: as §1
# [26] = target: Neu5Ac(a2-3)Gal(b1-3)GalNAc(b1-3)Gal(a1-4)Gal(b1-4)Glc
# Outline: as §1
# [27] = target: Neu5Ac(a2-3)Gal(b1-3)GalNAc(b1-3)Gal(b1-4)GlcNAc
# Outline: as §1
# [28] = target: Neu5Ac(a2-3)Gal(b1-3)GalNAc(b1-4)[Neu5Ac(a2-3)]Gal(b1-4)Glc
# Outline: as §1
# [29] = target: Neu5Ac(a2-3)Gal(b1-3)GalNAc6S
# Outline: as §1
# [30] = target: Neu5Ac(a2-3)Gal(b1-3)GlcNAc
# Outline: as §1
# [31] = target: Neu5Ac(a2-3)Gal(b1-3)GlcNAc(b1-3)Gal(b1-3)GlcNAc
# Outline: as §1
# [32] = target: Neu5Ac(a2-3)Gal(b1-3)GlcNAc6S
# Outline: as §1
# [33] = target: Neu5Ac(a2-3)Gal(b1-3)[Fuc(a1-4)]GlcNAc
# Outline: as §1
# [34] = target: Neu5Ac(a2-3)Gal(b1-3)[Fuc(a1-4)]GlcNAc(b1-3)Gal(b1-4)[Fuc(a1-3)]GlcNAc
# Outline: as §1
# [35] = target: Neu5Ac(a2-3)Gal(b1-3)[Neu5Ac(a2-3)Gal(b1-4)]GlcNAc
# Outline: as §1
# [36] = target: Neu5Ac(a2-3)Gal(b1-3)[Neu5Ac(a2-6)]GalNAc
# Outline: as §1
# [37] = target: Neu5Ac(a2-3)Gal(b1-4)Glc
# Outline: as §1
# [38] = target: Neu5Ac(a2-3)Gal(b1-4)GlcNAc
# Outline: as §1
# [39] = target: Neu5Ac(a2-3)Gal(b1-4)GlcNAc(b1-2)Man(a1-3)[GlcNAc(b1-2)Man(b1-4)GlcNAc(b1-2)Man(a1-6)]Man(b1-4)GlcNAc(b1-4)GlcNAc
# Outline: as §1
# [40] = target: Neu5Ac(a2-3)Gal(b1-4)GlcNAc(b1-2)Man(a1-3)[Neu5Ac(a2-3)Gal(b1-4)GlcNAc(b1-2)Man(a1-6)]Man(b1-4)GlcNAc(b1-4)GlcNAc
# Outline: as §1
# [41] = target: Neu5Ac(a2-3)Gal(b1-4)GlcNAc(b1-2)Man(a1-3)[Neu5Ac(a2-6)Gal(b1-4)GlcNAc(b1-2)Man(a1-6)]Man(b1-4)GlcNAc(b1-4)GlcNAc
# Outline: as §1
# [42] = target: Neu5Ac(a2-3)Gal(b1-4)GlcNAc(b1-3)Gal(b1-3)GlcNAc
# Outline: as §1
# [43] = target: Neu5Ac(a2-3)Gal(b1-4)GlcNAc(b1-3)Gal(b1-4)GlcNAc
# Outline: as §1
# [44] = target: Neu5Ac(a2-3)Gal(b1-4)GlcNAc(b1-3)Gal(b1-4)GlcNAc(b1-3)Gal(b1-4)GlcNAc
# Outline: as §1
# [45] = target: Neu5Ac(a2-3)Gal(b1-4)GlcNAc(b1-3)Gal(b1-4)[Fuc(a1-3)]GlcNAc
# Outline: as §1
# [46] = target: Neu5Ac(a2-3)Gal(b1-4)GlcNAc(b1-6)[Gal(b1-3)]GalNAc
# Outline: as §1
# [47] = target: Neu5Ac(a2-3)Gal(b1-4)GlcNAc(b1-6)[Neu5Ac(a2-3)Gal(b1-3)]GalNAc
# Outline: as §1
binder,measurement,setting,value
"P-Selectin (Mus musculus), Q01102 (protein) MAGCPKGSWTPRLRSVILGGAQLIWFSALISELVNQKEVAAWTYNYSTKAYSWNNSRVFCRRHFTDLVAIQNKNEIAHLNDVIPFFNSYYWIGIRKINNKWTWVGTNKTLTEEAENWADNEPNNKKNNQDCVEIYIKSNSAPGKWNDEPCFKRKRALCYTASCQDMSCSNQGECIETIGSYTCSCYPGFYGPECEYVKECGKVNIPQHVLMNCSHPLGEFSFNSQCTFSCAEGYELDGPGELQCLASGIWTNNPPKCDAVQCQSLEAPPHGTMACMHPIAAFAYDSSCKFECQPGYRARGSNTLHCTGSGQWSEPLPTCEAIACEPPEIPIHGSMDCVPSTGTFGYNSSCTFLCAEGFVLKGNDAIQCADSGQWTAPAPFCEALQCPEFPVPSKAQVNCSDPFGTLTYQSVCSFSCDEGSLLVGASVIRCLATGHWNGAPPECQAVSCAPMLSPENGSMTCVQPLGNSTYKSTCQFMCDEGFYLSGPERLDCSPSGHWTGTPPTCEAIKCPGIFAPEQGNLDCSHVHGEFGVGSICHFSCNEDFELLGSENVECTVSGRWSAPPPTCKGITSLPAPAVRCPALTTPGQGTMSCQHHLGSFGPNTTCYFGCKTGFTLRGANSLRCRASGQWTAVTPMCRAVKCSELHMDTAVAMNCSNPWGNFSYGSTCTFQCPEGQSLNGSVRATCREDGHWSDAMPTCQAGTLTIQEALTYLGGAVASTTGLAVGGTLLALLRKRLRKKDDGKCPLNPHSHLGTYGVFTNAAYDPTP",glycan array binding signal (z-score),[1],0.215
same,glycan array binding signal (z-score),[2],-0.478
same,glycan array binding signal (z-score),[3],-0.39
same,glycan array binding signal (z-score),[4],-0.745
same,glycan array binding signal (z-score),[5],-0.279
same,glycan array binding signal (z-score),[6],-0.37
same,glycan array binding signal (z-score),[7],-0.609
same,glycan array binding signal (z-score),[8],-0.594
same,glycan array binding signal (z-score),[9],-0.423
same,glycan array binding signal (z-score),[10],-0.56
same,glycan array binding signal (z-score),[11],-0.55
same,glycan array binding signal (z-score),[12],-0.332
same,glycan array binding signal (z-score),[13],-0.301
same,glycan array binding signal (z-score),[14],-0.406
same,glycan array binding signal (z-score),[15],-0.282
same,glycan array binding signal (z-score),[16],-0.287
same,glycan array binding signal (z-score),[17],-0.681
same,glycan array binding signal (z-score),[18],-0.359
same,glycan array binding signal (z-score),[19],-0.346
same,glycan array binding signal (z-score),[20],-0.19
same,glycan array binding signal (z-score),[21],-0.317
same,glycan array binding signal (z-score),[22],-0.277
same,glycan array binding signal (z-score),[23],-0.388
same,glycan array binding signal (z-score),[24],-0.087
same,glycan array binding signal (z-score),[25],-0.013
same,glycan array binding signal (z-score),[26],-0.299
same,glycan array binding signal (z-score),[27],-0.354
same,glycan array binding signal (z-score),[28],-0.253
same,glycan array binding signal (z-score),[29],0.903
same,glycan array binding signal (z-score),[30],-0.3
same,glycan array binding signal (z-score),[31],-0.268
same,glycan array binding signal (z-score),[32],0.547
same,glycan array binding signal (z-score),[33],2.9
same,glycan array binding signal (z-score),[34],3.15
same,glycan array binding signal (z-score),[35],-0.297
same,glycan array binding signal (z-score),[36],-0.237
same,glycan array binding signal (z-score),[37],0.472
same,glycan array binding signal (z-score),[38],-0.414
same,glycan array binding signal (z-score),[39],-0.142
same,glycan array binding signal (z-score),[40],-0.154
same,glycan array binding signal (z-score),[41],0.209
same,glycan array binding signal (z-score),[42],-0.276
same,glycan array binding signal (z-score),[43],0.111
same,glycan array binding signal (z-score),[44],-0.574
same,glycan array binding signal (z-score),[45],-0.342
same,glycan array binding signal (z-score),[46],-0.245
same,glycan array binding signal (z-score),[47],-0.169
